From a collection of fitness landscapes (doi:10.1126/science.1257360)
Some of the results follow.

B1: PhoQ; a variant is named by its letters at X, in order, P23837 (parent)
chain: MKKLLRLFFPLSLRVRFLLATAAVVLVLSLAYGMVALIGYSVSFDKTTFRLLRGESNLFYTLAKWENNKLHVELPENIDKQSPTMTLIYDENGQLLWAQRDVPWLMKMIQPDWLKSNGFHEIEADVNDTSLLLSGDHSIQQQLQEVREDDDDAEMTHSVAVNVYPATSRMPKLTIVVVDTIPVELKSSYMVWSWFIYVLSANLLLVIPLLWVAAWWSLRPIEALAKEVRELEEHNRELLNPATTRELTSLVRNLNRLLKSERERYDKYRTTLTDLTHSLKTPLXXLQXXLRSLRSEKMSVSDAEPVMLEQISRISQQIGYYLHRASMRGGTLLSRELHPVAPLLDNLTSALNKVYQRKGVNISLDISPEISFVGEQNDFVEVMGNVLDNACKYCLEFVEISARQTDEHLYIVVEDDGPGIPLSKREVIFDRGQRVDTLRPGQGVGLAVAREITEQYEGKIVAGESMLGGARMEVIFGRQHSAPKDE

Variants of: B1
Experiment: enrichment ratio after two sorts for PhoP signalling (ratio (wild type AVST 3.29)); higher = more functional
Settings: with PhoP (E. coli)

Variant | enrichment ratio
RSMK | ≤ 0.25
GIRP | ≤ 0.25
PRHG | ≤ 0.25
VVGM | ≤ 0.25
FIQI | ≤ 0.25
NDDV | ≤ 0.25
FLQV | ≤ 0.25
WWHF | ≤ 0.25
HNCW | ≤ 0.25
QVTK | ≤ 0.25
LGRD | ≤ 0.25
NPNP | ≤ 0.25
LVYC | ≤ 0.25
AEVS | 16.2
ECLT | ≤ 0.25
QFTS | ≤ 0.25
YMDY | ≤ 0.25
MIKH | ≤ 0.25
ESPN | ≤ 0.25
KRHC | ≤ 0.25
RLRN | ≤ 0.25
MHCI | ≤ 0.25
WVWH | ≤ 0.25
VNVL | 1.76

Variant | enrichment ratio
LTGY | ≤ 0.25
LNLH | ≤ 0.25
NITV | ≤ 0.25
TESF | 11.5
TIQH | 12.6
EGHY | ≤ 0.25
FKRY | ≤ 0.25
IDGA | ≤ 0.25
IRFR | ≤ 0.25
SKVE | 0.353
AMVC | ≤ 0.25
TNDV | ≤ 0.25
IAGF | ≤ 0.25
VPRC | ≤ 0.25
GLFE | ≤ 0.25
FNEH | ≤ 0.25
SFAK | ≤ 0.25
MDWV | ≤ 0.25
FRTE | ≤ 0.25
SRCS | ≤ 0.25
WQLK | ≤ 0.25
GHLH | ≤ 0.25
ERHM | ≤ 0.25
VAQS | ≤ 0.25

Variant | enrichment ratio
RTKW | ≤ 0.25
FLYW | ≤ 0.25
TLTR | ≤ 0.25
SVAF | 9.78
ADPC | ≤ 0.25
SSTH | 6.16
GMPW | ≤ 0.25
NCLN | ≤ 0.25
VWHV | ≤ 0.25
VTDN | ≤ 0.25
QGPE | ≤ 0.25
ENQT | ≤ 0.25
HGTE | ≤ 0.25
MQGA | ≤ 0.25
PELY | ≤ 0.25
QQIT | ≤ 0.25
MTAQ | 3.04
ITVG | ≤ 0.25
DTRV | ≤ 0.25
TGHN | 5.44
MASH | ≤ 0.25
ATTL | 9.83
ISYT | ≤ 0.25
PGIK | ≤ 0.25

Variant | enrichment ratio
FRKA | ≤ 0.25
KQDG | ≤ 0.25
HMSI | ≤ 0.25
DHWG | ≤ 0.25
MEIT | 1.69
KTDR | ≤ 0.25
WFYF | ≤ 0.25
DQGR | ≤ 0.25
KCGR | ≤ 0.25
KNDM | ≤ 0.25
MERL | ≤ 0.25
ISHQ | ≤ 0.25
NKVK | ≤ 0.25
DSED | ≤ 0.25
WLFG | ≤ 0.25
SFEI | ≤ 0.25
KRHA | ≤ 0.25
FFGW | ≤ 0.25
HSMP | ≤ 0.25
GEKL | ≤ 0.25
KNYV | ≤ 0.25
GPFV | ≤ 0.25
GWQY | ≤ 0.25
KAVD | ≤ 0.25

Variant | enrichment ratio
GGQY | ≤ 0.25
RERF | ≤ 0.25
KLLD | ≤ 0.25
KCCM | ≤ 0.25
FNAH | ≤ 0.25
WTLY | ≤ 0.25
NAED | ≤ 0.25
PKMW | ≤ 0.25
LSET | ≤ 0.25
SPTC | ≤ 0.25
EIPI | ≤ 0.25
ECVS | ≤ 0.25
HYNP | ≤ 0.25
LQIC | ≤ 0.25
STTD | ≤ 0.25
MKLY | ≤ 0.25
LPDA | ≤ 0.25
ARKL | ≤ 0.25
KRLM | ≤ 0.25
NWKD | ≤ 0.25
RQIA | ≤ 0.25
HRFP | ≤ 0.25
RWHE | ≤ 0.25
FYTT | ≤ 0.25

Variant | enrichment ratio
FDCE | ≤ 0.25
HGEK | ≤ 0.25
DHPA | ≤ 0.25
LMPC | ≤ 0.25
WLTL | 0.379
TFCL | 5.44
MWYY | ≤ 0.25
PQTG | ≤ 0.25
NMQP | ≤ 0.25
RCVF | ≤ 0.25
WLVP | ≤ 0.25
TCGC | 23.2
VWRT | ≤ 0.25
LQFQ | 0.522
VVYC | ≤ 0.25
SERI | ≤ 0.25
RIYC | ≤ 0.25
RKIE | ≤ 0.25
DKTC | ≤ 0.25
FYRL | ≤ 0.25
MVAP | ≤ 0.25
YDNQ | ≤ 0.25
CTCF | ≤ 0.25
TFFI | ≤ 0.25

Variant | enrichment ratio
MQMG | ≤ 0.25
NQNI | ≤ 0.25
GKYT | ≤ 0.25
TNVA | ≤ 0.25
IIYV | ≤ 0.25
KRDM | ≤ 0.25
MFTW | ≤ 0.25
MWVC | ≤ 0.25
IWNL | ≤ 0.25
FYQY | ≤ 0.25
ISGE | ≤ 0.25
HYFW | ≤ 0.25
SQKD | ≤ 0.25
FARV | ≤ 0.25
ISSR | ≤ 0.25
RMDG | ≤ 0.25
THEE | ≤ 0.25
TIQY | 7.51
QMCG | ≤ 0.25
RMSK | ≤ 0.25
GGCK | ≤ 0.25
QKYI | ≤ 0.25
GRMR | ≤ 0.25
FSCI | 7.45

Variant | enrichment ratio
SWEN | ≤ 0.25
HQNN | ≤ 0.25
LYPG | ≤ 0.25
GFSE | ≤ 0.25
HWVS | ≤ 0.25
DVYP | ≤ 0.25
GKEW | ≤ 0.25
IFFW | ≤ 0.25
FRFI | ≤ 0.25
TFCF | ≤ 0.25
VDPS | ≤ 0.25
FGQY | ≤ 0.25
DKLN | ≤ 0.25
YWTK | ≤ 0.25
FLCE | ≤ 0.25
EALR | ≤ 0.25
QKSV | ≤ 0.25
NGWF | ≤ 0.25
VHKR | ≤ 0.25
DFNG | ≤ 0.25
TKKD | ≤ 0.25
NFWR | ≤ 0.25
QQWS | 9.54
VFAE | ≤ 0.25

Variant | enrichment ratio
MGWT | 4.51
HLKG | ≤ 0.25
DEFN | ≤ 0.25
WTHW | ≤ 0.25
KLHG | ≤ 0.25
SAQD | ≤ 0.25
EILY | ≤ 0.25
FRPN | ≤ 0.25
QALR | ≤ 0.25
AEGD | 0.253
HKLA | ≤ 0.25
TQMC | 5.9
LTAF | ≤ 0.25
ANNW | ≤ 0.25
WKNQ | ≤ 0.25
SFDN | ≤ 0.25
DCCN | ≤ 0.25
DNDK | ≤ 0.25
IITS | ≤ 0.25
GYCI | ≤ 0.25
INVF | ≤ 0.25
YKVP | ≤ 0.25
FREY | ≤ 0.25
EYEF | ≤ 0.25

Variant | enrichment ratio
KLNY | ≤ 0.25
MRFR | ≤ 0.25
SVPI | 5.93
TMEI | 17.7
GQMG | ≤ 0.25
MIYK | ≤ 0.25
QHFK | ≤ 0.25
PRCK | ≤ 0.25
NYSW | ≤ 0.25
WNAI | ≤ 0.25
NEYM | ≤ 0.25
YGGG | ≤ 0.25
QFEY | ≤ 0.25
PPSY | ≤ 0.25
GEGR | ≤ 0.25
IYIP | ≤ 0.25
QIYP | ≤ 0.25
GVGW | ≤ 0.25
VSGH | ≤ 0.25
EHIS | ≤ 0.25
YPFH | ≤ 0.25
DSIW | ≤ 0.25
DFDP | ≤ 0.25
KDRP | ≤ 0.25

Variant | enrichment ratio
RRCG | ≤ 0.25
PMMY | ≤ 0.25
AWTN | ≤ 0.25
WHMK | ≤ 0.25
IKMH | ≤ 0.25
FPFK | ≤ 0.25
RVFT | ≤ 0.25
AQIF | 10.1
KPYG | ≤ 0.25
SVSY | 6.3
AFHW | ≤ 0.25
VHWT | ≤ 0.25
VVSP | ≤ 0.25
SYLA | 0.931
YHSY | ≤ 0.25
DKIR | ≤ 0.25
KSED | ≤ 0.25
MDWQ | ≤ 0.25
WKVY | ≤ 0.25
DCGD | ≤ 0.25
VWDF | ≤ 0.25
GHTH | ≤ 0.25
SCQT | ≤ 0.25
NQGY | ≤ 0.25

Variant | enrichment ratio
ICSM | 3.87
FQCP | ≤ 0.25
NNGG | ≤ 0.25
VRQL | ≤ 0.25
DAKI | ≤ 0.25
FLWR | ≤ 0.25
WSFA | ≤ 0.25
LAWV | ≤ 0.25
GNNQ | ≤ 0.25
MERM | ≤ 0.25
PECM | ≤ 0.25
GSTQ | 0.733
YGSG | ≤ 0.25
QFER | ≤ 0.25
RTGW | ≤ 0.25
IEEF | ≤ 0.25
LIAI | ≤ 0.25
QNRS | ≤ 0.25
ACDS | 0.253
NQQI | ≤ 0.25
ENCH | ≤ 0.25
GAKS | ≤ 0.25
TIPV | ≤ 0.25
RLVY | ≤ 0.25

Variant | enrichment ratio
RTQD | ≤ 0.25
CLQL | ≤ 0.25
WMFV | ≤ 0.25
DKIT | ≤ 0.25
GEHL | ≤ 0.25
VTMM | 12.1
MHWG | ≤ 0.25
FIAT | ≤ 0.25
YKCY | 0.38
INYM | ≤ 0.25
FQRE | ≤ 0.25
QVLA | ≤ 0.25
TQCQ | 27.8
WETC | ≤ 0.25
TMAL | 14
RRQR | ≤ 0.25
RMGG | ≤ 0.25
YLCR | ≤ 0.25
